Test results taken from PMC7315779.
Results are given in words; binding and its absence hold for the method and conditions named. For some of these results: Binding seen in cells or lysates may run through a third protein. Some entries that bind do so weakly or less than the wild type. For some of these results: Tags and fused reporters may be left off the sequences shown. Blank lines part the entries; values can stand above or below the molecule they belong to.

Sequences of proteins named here, by UniProt entry; tags and fusion partners are left off.
UniProt Q5S007: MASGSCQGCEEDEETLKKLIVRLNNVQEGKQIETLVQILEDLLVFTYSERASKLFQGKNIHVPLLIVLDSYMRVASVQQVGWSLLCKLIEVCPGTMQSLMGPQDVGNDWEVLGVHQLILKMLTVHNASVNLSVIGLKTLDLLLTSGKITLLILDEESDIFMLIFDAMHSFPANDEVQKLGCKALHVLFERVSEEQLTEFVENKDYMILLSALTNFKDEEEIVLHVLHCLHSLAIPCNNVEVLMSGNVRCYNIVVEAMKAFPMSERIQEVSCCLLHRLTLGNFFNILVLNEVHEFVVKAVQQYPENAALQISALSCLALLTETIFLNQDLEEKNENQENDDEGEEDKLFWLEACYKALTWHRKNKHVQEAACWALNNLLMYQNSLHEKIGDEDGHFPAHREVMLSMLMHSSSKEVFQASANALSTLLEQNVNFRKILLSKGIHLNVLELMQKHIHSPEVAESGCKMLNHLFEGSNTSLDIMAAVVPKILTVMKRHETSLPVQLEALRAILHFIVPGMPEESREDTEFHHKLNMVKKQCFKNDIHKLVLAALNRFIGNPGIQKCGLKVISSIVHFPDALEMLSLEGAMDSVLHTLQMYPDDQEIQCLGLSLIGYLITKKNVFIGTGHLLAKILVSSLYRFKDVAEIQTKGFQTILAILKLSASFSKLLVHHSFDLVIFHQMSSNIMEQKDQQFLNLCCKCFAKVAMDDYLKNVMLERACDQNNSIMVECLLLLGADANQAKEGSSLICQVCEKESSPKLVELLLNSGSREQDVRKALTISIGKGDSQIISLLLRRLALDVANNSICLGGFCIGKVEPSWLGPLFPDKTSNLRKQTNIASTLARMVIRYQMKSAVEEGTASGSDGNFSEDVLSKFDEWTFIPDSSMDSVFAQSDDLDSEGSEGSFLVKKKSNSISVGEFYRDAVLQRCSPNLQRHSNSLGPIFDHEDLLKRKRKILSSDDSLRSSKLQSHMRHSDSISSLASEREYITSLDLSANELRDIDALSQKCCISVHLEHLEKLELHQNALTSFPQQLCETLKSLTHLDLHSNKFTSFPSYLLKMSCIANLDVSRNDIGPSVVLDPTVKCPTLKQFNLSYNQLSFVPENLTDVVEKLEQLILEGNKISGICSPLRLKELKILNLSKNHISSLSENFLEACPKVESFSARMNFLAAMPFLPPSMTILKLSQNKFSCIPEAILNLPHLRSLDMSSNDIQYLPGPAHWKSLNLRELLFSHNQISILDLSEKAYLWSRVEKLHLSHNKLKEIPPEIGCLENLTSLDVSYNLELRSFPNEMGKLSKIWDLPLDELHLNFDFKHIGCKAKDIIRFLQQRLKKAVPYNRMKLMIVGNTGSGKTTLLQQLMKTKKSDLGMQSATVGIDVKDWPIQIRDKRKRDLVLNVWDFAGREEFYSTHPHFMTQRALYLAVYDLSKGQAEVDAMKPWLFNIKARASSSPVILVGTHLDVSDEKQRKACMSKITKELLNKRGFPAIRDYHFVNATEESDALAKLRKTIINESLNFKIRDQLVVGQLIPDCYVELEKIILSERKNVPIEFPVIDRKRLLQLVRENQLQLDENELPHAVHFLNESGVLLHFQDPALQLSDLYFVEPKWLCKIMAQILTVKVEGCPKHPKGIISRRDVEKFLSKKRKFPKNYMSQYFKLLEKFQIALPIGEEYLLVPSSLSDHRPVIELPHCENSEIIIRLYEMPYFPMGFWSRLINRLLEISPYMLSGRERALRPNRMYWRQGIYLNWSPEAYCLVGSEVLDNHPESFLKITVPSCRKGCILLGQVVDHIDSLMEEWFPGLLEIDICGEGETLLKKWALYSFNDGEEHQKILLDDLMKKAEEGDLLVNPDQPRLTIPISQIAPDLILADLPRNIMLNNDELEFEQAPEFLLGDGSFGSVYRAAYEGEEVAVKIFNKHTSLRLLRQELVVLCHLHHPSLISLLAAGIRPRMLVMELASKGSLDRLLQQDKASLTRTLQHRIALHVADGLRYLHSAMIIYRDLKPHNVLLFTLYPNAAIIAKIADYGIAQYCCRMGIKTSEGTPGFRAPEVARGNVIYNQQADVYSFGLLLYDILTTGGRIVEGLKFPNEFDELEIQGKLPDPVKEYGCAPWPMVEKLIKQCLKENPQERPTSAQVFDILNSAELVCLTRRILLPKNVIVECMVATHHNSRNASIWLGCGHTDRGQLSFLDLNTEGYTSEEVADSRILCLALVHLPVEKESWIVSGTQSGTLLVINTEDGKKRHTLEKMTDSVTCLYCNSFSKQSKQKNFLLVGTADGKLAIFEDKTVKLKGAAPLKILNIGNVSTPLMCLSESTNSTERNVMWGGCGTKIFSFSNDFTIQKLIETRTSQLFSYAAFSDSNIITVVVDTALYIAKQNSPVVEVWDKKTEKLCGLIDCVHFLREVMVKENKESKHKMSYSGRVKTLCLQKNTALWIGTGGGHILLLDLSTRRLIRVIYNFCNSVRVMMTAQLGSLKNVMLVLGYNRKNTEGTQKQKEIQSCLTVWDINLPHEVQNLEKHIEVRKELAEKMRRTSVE

How the values were obtained:
[1] = target: T1, Syndetin-GFP (GFP-tagged VPS50) (UniProt Q96JG6); test: co-IP; HEK293FT transfected with GFP-tagged VPS50 (syndetin) or VPS54 and FLAG-tagged LRRK2; which protein was precipitated is not told
T1 sequence: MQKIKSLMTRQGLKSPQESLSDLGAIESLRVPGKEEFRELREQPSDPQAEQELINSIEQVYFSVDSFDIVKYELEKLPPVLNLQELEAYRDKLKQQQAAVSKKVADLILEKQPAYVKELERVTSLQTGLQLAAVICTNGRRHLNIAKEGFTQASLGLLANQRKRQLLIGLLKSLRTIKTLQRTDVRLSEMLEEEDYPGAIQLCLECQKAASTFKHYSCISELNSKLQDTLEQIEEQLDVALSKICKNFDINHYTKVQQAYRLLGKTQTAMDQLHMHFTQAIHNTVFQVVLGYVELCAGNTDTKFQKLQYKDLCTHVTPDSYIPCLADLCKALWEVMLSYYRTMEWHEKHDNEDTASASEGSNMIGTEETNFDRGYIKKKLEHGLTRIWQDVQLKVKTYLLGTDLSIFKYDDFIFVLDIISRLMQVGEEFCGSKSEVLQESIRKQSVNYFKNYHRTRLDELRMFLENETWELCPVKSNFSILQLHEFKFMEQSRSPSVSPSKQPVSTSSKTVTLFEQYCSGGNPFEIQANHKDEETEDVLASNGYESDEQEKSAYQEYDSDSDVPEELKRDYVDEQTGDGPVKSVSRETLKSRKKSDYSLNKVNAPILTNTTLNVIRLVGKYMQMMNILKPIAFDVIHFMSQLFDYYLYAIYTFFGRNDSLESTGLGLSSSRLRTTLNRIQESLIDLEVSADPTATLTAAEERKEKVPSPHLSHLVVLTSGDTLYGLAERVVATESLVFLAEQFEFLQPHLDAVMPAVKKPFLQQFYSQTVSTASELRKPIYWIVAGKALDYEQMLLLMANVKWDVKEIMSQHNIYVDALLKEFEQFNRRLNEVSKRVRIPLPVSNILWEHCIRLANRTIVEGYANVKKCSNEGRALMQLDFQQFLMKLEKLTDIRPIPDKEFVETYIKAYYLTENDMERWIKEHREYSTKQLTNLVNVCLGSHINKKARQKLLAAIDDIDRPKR

VPS54-GFP (human) = target: T2, VPS54-GFP (human) (UniProt Q9P1Q0); test: as above
T2 sequence: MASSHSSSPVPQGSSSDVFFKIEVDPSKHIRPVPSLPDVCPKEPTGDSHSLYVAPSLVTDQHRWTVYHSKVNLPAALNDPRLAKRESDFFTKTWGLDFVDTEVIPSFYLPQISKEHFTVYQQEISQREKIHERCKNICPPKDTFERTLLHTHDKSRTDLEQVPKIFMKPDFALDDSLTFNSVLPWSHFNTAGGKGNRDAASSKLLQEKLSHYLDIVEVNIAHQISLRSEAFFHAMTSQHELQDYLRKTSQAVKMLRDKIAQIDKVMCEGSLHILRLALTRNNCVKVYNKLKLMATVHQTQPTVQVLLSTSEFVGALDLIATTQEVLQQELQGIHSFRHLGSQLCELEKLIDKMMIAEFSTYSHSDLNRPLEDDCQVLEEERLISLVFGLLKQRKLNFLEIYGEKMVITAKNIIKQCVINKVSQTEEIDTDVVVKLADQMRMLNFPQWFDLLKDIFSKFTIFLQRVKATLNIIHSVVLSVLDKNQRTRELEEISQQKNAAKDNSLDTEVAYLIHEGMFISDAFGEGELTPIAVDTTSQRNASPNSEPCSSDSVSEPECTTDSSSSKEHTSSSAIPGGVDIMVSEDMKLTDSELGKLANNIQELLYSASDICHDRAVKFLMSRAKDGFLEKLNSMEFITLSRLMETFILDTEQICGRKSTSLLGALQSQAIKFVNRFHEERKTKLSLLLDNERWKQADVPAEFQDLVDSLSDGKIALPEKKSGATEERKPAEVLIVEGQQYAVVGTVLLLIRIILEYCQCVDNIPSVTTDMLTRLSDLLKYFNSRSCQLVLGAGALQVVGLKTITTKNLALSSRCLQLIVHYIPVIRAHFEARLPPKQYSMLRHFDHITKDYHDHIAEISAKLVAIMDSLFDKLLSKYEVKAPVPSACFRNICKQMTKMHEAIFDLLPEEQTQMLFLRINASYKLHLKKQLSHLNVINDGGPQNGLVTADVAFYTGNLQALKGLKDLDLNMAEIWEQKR

[2] = target: 3xFLAG-tagged full-length LRRK2 (pCHMWS-3xflag-LRRK2) (UniProt Q5S007); test: co-IP; HEK293FT transfected with 3xFLAG-tagged bait; lysate in 20 mM Tris-HCl pH 7.5, 150 mM NaCl, 1 mM EDTA, 0.3% Triton X-100, 10% glycerol; anti-flag M2 agarose 1 h at 4°C; eluted with 3xflag peptide; blotted for endogenous partners; mock and FLAG-GUS as negative controls
[3] = target: T3, 3xFLAG-tagged full-length RAB29 (p3x-flag-HD-DEST-RAB29) (UniProt O14966); test: as above
T3 sequence: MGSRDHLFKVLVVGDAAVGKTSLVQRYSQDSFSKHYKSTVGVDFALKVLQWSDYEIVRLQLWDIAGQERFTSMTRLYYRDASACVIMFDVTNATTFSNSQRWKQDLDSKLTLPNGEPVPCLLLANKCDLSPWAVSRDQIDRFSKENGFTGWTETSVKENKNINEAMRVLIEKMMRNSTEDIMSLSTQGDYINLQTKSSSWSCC

[4] = target: T4, VPS52 spotted on the Protoarray, version 5.2 (UniProt Q8N1B4); test: peptide or protein array; Protoarrays version 5.2 (Thermo Scientific) probed with 6 micrograms of purified 3x-flag-tagged protein; detected with biotinylated anti-Flag M2 and Alexa Fluor 647 streptavidin; 3x-flag eGFP as control; hits by ProtoArray Prospector (Z-scores); both purified
T4 sequence: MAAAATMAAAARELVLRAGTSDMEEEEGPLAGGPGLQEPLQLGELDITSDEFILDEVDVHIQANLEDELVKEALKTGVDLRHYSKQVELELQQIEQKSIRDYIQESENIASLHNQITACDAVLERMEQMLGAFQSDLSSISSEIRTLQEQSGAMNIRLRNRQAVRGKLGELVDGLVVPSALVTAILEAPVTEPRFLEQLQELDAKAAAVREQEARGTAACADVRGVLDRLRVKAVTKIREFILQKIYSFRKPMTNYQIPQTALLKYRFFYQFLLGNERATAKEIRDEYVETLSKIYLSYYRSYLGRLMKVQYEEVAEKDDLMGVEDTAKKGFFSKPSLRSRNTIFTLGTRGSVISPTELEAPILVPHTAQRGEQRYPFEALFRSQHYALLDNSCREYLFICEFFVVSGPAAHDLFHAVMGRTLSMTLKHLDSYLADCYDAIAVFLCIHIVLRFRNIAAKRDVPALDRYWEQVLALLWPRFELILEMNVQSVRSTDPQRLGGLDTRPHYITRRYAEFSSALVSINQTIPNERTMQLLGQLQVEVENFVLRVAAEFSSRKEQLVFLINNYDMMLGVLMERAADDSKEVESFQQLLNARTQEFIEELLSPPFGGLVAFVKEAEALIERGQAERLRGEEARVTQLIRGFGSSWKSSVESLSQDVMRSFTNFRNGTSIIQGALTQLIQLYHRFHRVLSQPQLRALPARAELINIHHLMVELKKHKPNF

binding [1]: binds | binding (VPS54-GFP (human)): binds
Molecule: 3xFLAG-tagged full-length LRRK2 (pCHMWS-3xflag-LRRK2) (from UniProt Q5S007 1-2527)

binding [2]: binds | binding [3]: binds
B1: endogenous VPS53 (protein, UniProt Q5VIR6 1-832)
chain: MMEEEELEFVEELEAVLQLTPEVQLAIEQVFPSQDPLDRADFNAVEYINTLFPTEQSLANIDEVVNKIRLKIRRLDDNIRTVVRGQTNVGQDGRQALEEAQKAIQQLFGKIKDIKDKAEKSEQMVKEITRDIKQLDHAKRHLTTSITTLNHLHMLAGGVDSLEAMTRRRQYGEVANLLQGVMNVLEHFHKYMGIPQIRQLSERVKAAQTELGQQILADFEEAFPSQGTKRPGGPSNVLRDACLVANILDPRIKQEIIKKFIKQHLSEYLVLFQENQDVAWLDKIDRRYAWIKRQLVDYEEKYGRMFPREWCMAERIAVEFCHVTRAELAKIMRTRAKEIEVKLLLFAIQRTTNFEGFLAKRFSGCTLTDGTLKKLESPPPSTNPFLEDEPTPEMEELATEKGDLDQPKKPKAPDNPFHGIVSKCFEPHLYVYIESQDKNLGELIDRFVADFKAQGPPKPNTDEGGAVLPSCADLFVYYKKCMVQCSQLSTGEPMIALTTIFQKYLREYAWKILSGNLPKTTTSSGGLTISSLLKEKEGSEVAKFTLEELCLICNILSTAEYCLATTQQLEEKLKEKVDVSLIERINLTGEMDTFSTVISSSIQLLVQDLDAACDPALTAMSKMQWQNVEHVGDQSPYVTSVILHIKQNVPIIRDNLASTRKYFTQFCVKFANSFIPKFITHLFKCKPISMVGAEQLLLDTHSLKMVLLDLPSISSQVVRKAPASYTKIVVKGMTRAEMILKVVMAPHEPLVVFVDNYIKLLTDCNTETFQKILDMKGLKRSEQSSMLELLRQRLPAPPSGAESSGSLSLTAPTPEQESSRIRKLEKLIKKRL

binding [2]: binds | binding [3]: binds
B2: endogenous VPS51 (protein, UniProt Q9UID3 1-782)
chain: MAAAAAAGPSPGSGPGDSPEGPEGEAPERRRKAHGMLKLYYGLSEGEAAGRPAGPDPLDPTDLNGAHFDPEVYLDKLRRECPLAQLMDSETDMVRQIRALDSDMQTLVYENYNKFISATDTIRKMKNDFRKMEDEMDRLATNMAVITDFSARISATLQDRHERITKLAGVHALLRKLQFLFELPSRLTKCVELGAYGQAVRYQGRAQAVLQQYQHLPSFRAIQDDCQVITARLAQQLRQRFREGGSGAPEQAECVELLLALGEPAEELCEEFLAHARGRLEKELRNLEAELGPSPPAPDVLEFTDHGGSGFVGGLCQVAAAYQELFAAQGPAGAEKLAAFARQLGSRYFALVERRLAQEQGGGDNSLLVRALDRFHRRLRAPGALLAAAGLADAATEIVERVARERLGHHLQGLRAAFLGCLTDVRQALAAPRVAGKEGPGLAELLANVASSILSHIKASLAAVHLFTAKEVSFSNKPYFRGEFCSQGVREGLIVGFVHSMCQTAQSFCDSPGEKGGATPPALLLLLSRLCLDYETATISYILTLTDEQFLVQDQFPVTPVSTLCAEARETARRLLTHYVKVQGLVISQMLRKSVETRDWLSTLEPRNVRAVMKRVVEDTTAIDVQVGLLYEEGVRKAQSSDSSKRTFSVYSSSRQQGRYAPSYTPSAPMDTNLLSNIQKLFSERIDVFSPVEFNKVSVLTGIIKISLKTLLECVRLRTFGRFGLQQVQVDCHFLQLYLWRFVADEELVHLLLDEVVASAALRCPDPVPMEPSVVEVICERG

binding [4]: binds
B3: 3xFLAG-tagged full-length RAB29 (p3x-flag-HD-DEST-RAB29) (protein, UniProt O14966 1-203)
chain: T3 sequence
